# According to PubChem BioAssay AID1461 (National Center for Advancing Translational Sciences (NCATS), 2008):
# Screen size: about 220,000 compounds; about 2,300 (1%) were called active. Inconclusive results, whose numbers are uncertain, are shown with a selection of clear calls. The call rests on the fitted dose curve; in most records, active means well fitted inhibition curve with a large enough effect; inconclusive means small, poorly fitted or top-dose-only effect, or effect the other way; inactive means no such curve, though single readings can be large or run the other way. Potencies of inconclusive entries are left out as doubtful fits.
# Biological target: Neuropeptide S receptor (Homo sapiens) (UniProt Q6W5P4)
# Chain of UniProt Q6W5P4 (Q6W5P4 whole entry, looked up): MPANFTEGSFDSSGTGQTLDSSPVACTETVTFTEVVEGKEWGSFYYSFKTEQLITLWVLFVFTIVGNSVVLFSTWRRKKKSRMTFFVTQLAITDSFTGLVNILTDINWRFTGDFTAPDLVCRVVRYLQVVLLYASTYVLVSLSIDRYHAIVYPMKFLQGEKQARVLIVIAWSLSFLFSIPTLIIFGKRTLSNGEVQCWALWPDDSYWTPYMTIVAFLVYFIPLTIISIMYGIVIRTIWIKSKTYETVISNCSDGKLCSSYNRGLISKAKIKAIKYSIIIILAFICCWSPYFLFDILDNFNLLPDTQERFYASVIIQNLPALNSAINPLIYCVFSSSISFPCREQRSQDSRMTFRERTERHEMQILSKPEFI
# Test: qHTS Assay for Antagonists of the Neuropeptide S Receptor: cAMP Signal Transduction; further: nearly all actives have a fitted effect of over 50% in size
# Details: CHO-NPSR cells, cAMP TR-FRET, antagonist mode; activity change, negative = inhibition: at 38.3 µM (top of the series) unless noted
# Description: NIH Chemical Genomics Center [NCGC] NIH Molecular Libraries Probe Production centers Network [MLPCN] MLPCN Grant: X01-DA026210-01 Assay Submitter (PI): Heilig, Markus Alexander NCGC Assay Overview: Neuropeptide S receptor (NPSR), previously known as GPR154, is a recently de-orphanized G protein coupled receptor. Its endogenous ligand is the 20 amino acids peptide Neuropeptide S (NPS). […] NPS and its receptor are found in various tissues. Specifically they are highly expressed in brain areas that have been implicated in modulation of arousal, stress and anxiety. Central administration of NPS in mice produces an unusual profile of activity by inducing wakefulness and arousal, while at the same time suppressing anxiety. Therefore, NPSR may represent a novel drug target for the treatment of sleep and anxiety disorders. To identify NPSR antagonists, we developed a cell-based cAMP assay. NPS can stimulate the production of cAMP in Chinese hamster ovary cells stably expressing NPS receptor. This change in intracellular cAMP level can be detected by a homogeneous LANCE cAMP assay based on the TR-FRET (time resolved fluorescence resonance energy transfer) between a europium-labeled cAMP tracer complex and a cAMP-specific antibody labeled with Alexa Fluor 647. The europium-labeled cAMP tracer complex is formed by the tight interaction between Biotin-cAMP (b-cAMP) and streptavidin labeled with Europium-W8044 chelate (Eu-SA). Light pulse at 320 nm excites the europium of the cAMP tracer and the energy emitted is transferred to the Alexa molecule bound to the cAMP antibody, generating a TR-FRET signal at 665 nm. Residual energy from the europium will produce a light at 620 nm. The native unlabeled cAMP from cell lysates competes with the europium-cAMP tracer for antibody binding and reversely reduces the emission signal of Alexa by interrupting FRET between the two labeled molecules. Both emission signals from the FRET donor (620 nm) and the acceptor (665 nm) can be detected by a plate reader in the TRF mode. Expression of result in fluorescence ratio (665 nm/620 nm) helps to normalize differences due to cell density and reagent dispensing. This assay was successfully optimized to a 1536-well plate format.
# NCGC Assay Protocol Summary: A Chinese hamster ovary (CHO) cell line stably expressing the NPS receptor (CHO-NPSR) was obtained from Dr. Heilig lab at NIAAA and maintained in F-12 Kaighn's media (Invitrogen, Carlsbad, CA, 21127) supplemented with 10 % FBS, 100 units/ml penicillin, 100 ug/ml streptomycin and 250 ug/ml geneticin at 37C, 5% CO2 in a humidified atmosphere. Before the assay, aliquots of cells were frozen and stored at -135C. The assay was performed in 1536-well format. Data are reported for both the ratio of the two emission wavelengths, and also for the component 'donor' channel, Em2=620. Data were normalized to the controls for basal activity (DMSO only) and 100% inhibition (No NPS control). IC50 values were determined from concentration-response data modeled with the standard Hill equation. NPS 1536-well assay protocol: (1) Fresh or frozen CHO-NPSR cells were suspended in F-12 Kaighn's media supplemented with 10 % FBS, 100 units/ml penicillin and 100 ug/ml streptomycin. Cells were plated at 4 ul/well (1200 cells) to white, tissue culture treated 1536-well plates, and then cultured at 37C, 5 % CO2 for 16 to 30 hours. (2) Add 23 nl/well of compound in DMSO solution. The final titration for each compound was between 0.6 nM and 46 uM. (3) Add 1 ul of stimulation reagent (1X HBSS buffer, 5 mM HEPES, 0.1% BSA, 500 uM RO-201724 (Sigma-Aldrich, B8279), 1.5% Alexa 647-labeled anti-cAMP antibody (from Perkin Elmer), 100 nM NPS) (4) Incubation at 37C, 5 % CO2 for 60 min. (5) Add 1 ul/well detection reagent. Detection reagent was prepared by adding biotin labeled cAMP (4%), streptavidin labeled with Europium-W8044 chelate (1.33%) and TritonX-100 (1%) to detection buffer. […]
# On the % scale 0 is the no-effect control and ±100 the full control effect; potency means the concentration at half of the fitted maximal effect; tags describe the fitted curve by direction and shape.
SMILES,Potency,"activity change, negative = inhibition"
CC(C)COP(=O)(OCC(C)C)C(Nc1ccccc1)c1ccccc1 (centres undefined),"inconclusive [inhibitor, single point]",
Cc1ccc(OCCn2cccc2/C=C2/C(=O)NC(=O)N(Cc3ccco3)C2=O)cc1,,inactive: -19.2%
O=P1(N(CCCl)CCCl)NCCCO1 (centres undefined),"inconclusive [inhibitor, single point]",
Cc1nc(SCc2c(Cl)cccc2Cl)nc(OC(=O)N(C)C)c1C,"inconclusive [activator, single point]",
C/C(=N\NC(=S)Nc1ccccc1)c1c(O)n(C)c(=O)n(C)c1=O,,inactive: 9.67%
COc1ccccc1OCCCn1cc(C(=O)c2ccco2)c2ccccc21,"inconclusive [inhibitor, partial curve]",
CN1CCN(c2ccc(N)cc2)CC1,,inactive: -26.3% [at 46.1 µM]
CCOC(=O)C(NC(C)=O)C(OC(C)=O)c1cccc(N(CCCl)CCCl)c1 (centres undefined),,inactive: -10.9%
C=CCNC(=O)c1c(N)n(Cc2ccco2)c2nc3ccccc3nc12,,inactive: -26.4% [at 46.1 µM]
CCN1C(=O)/C(=C/c2ccc3c(c2)CCN3CCCCl)C(=O)NC1=S,,inactive: -53.5%
C/C(CC(c1ccccc1)c1c(O)c2ccccc2oc1=O)=N\NC(N)=S (centres undefined),,inactive: 5.85%
c1ccc2sc(C3(N4CCCCC4)CCCCC3)cc2c1,"inconclusive [inhibitor, single point]",
C/C(=N\N1CCCCCC1)c1c(O)n(C2CCCCC2)c(=O)[nH]c1=O,"inconclusive [activator, partial curve]",
CCOC(=O)Cn1cc(C(=O)c2ccccc2F)c2ccccc21,"inconclusive [inhibitor, partial curve]",
CCCCn1c(O)c(C(CC)=Nc2cccc(C(=O)O)c2)c(=O)[nH]c1=O,,inactive: -10.6% [at 46.1 µM]
C[N+]1(C)C2CCC1CC(OC(=O)c1c[nH]c3ccccc13)C2 (centres undefined),"inconclusive [inhibitor, partial curve]",
Cc1ccc(N2CCN(CCc3ccccc3)CC2)cc1,"inconclusive [inhibitor, partial curve, poor fit]",

SMILES,Potency,"activity change, negative = inhibition"
O=C(c1cccs1)c1cn(Cc2ccccc2Cl)c2ccccc12,"inconclusive [inhibitor, single point]",
O=C(COc1ccccc1)c1cn(Cc2ccccc2)c2ccccc12,"inconclusive [inhibitor, partial curve, poor fit]",
N#CC(C#N)=NNc1ccc(-n2ccc(C(F)(F)F)n2)cc1,active: 2.51 µM,
COCCOC(=O)c1c(N)n(Cc2ccco2)c2nc3ccccc3nc12,"inconclusive [inhibitor, partial curve]",
CC(=O)Nc1ccccc1C(=O)OCc1ccc(C(=O)c2ccccc2)cc1,"inconclusive [inhibitor, single point]",
CC1CCN(S(=O)(=O)c2ccc(NN=C(C#N)C#N)cc2)CC1,active: 10 µM,
CCN(CC)c1ccc(CN2CC=C(c3ccc(F)cc3)CC2)cc1,active: 10 µM,
Clc1ccc(COC(Cn2ccnc2)c2ccc(Cl)cc2Cl)c(Cl)c1 (centres undefined),"inconclusive [inhibitor, single point]",
Cc1cc(/C=C2/C(=O)NC(=O)N(C)C2=O)c(C)n1-c1ccccc1,,inactive: 1.98%
COCCOC(=O)C1=C(C)OC(N)=C(C(=O)OC)C12C(=O)Nc1ccccc12 (centres undefined),,inactive: -8.16% [at 46.1 µM]
CCC(=NCCc1ccccc1)c1c(O)n(C2CCCCC2)c(=O)[nH]c1=O,"inconclusive [inhibitor, partial curve]",
Cn1c(=O)cc(OCCCC(=O)N2CCC3(CC2)OCCO3)c2ccccc21,"inconclusive [inhibitor, full curve, poor fit]",
O=C1NC(=O)C(=Cc2coc3ccc(O)cc3c2=O)C(=O)N1,"inconclusive [activator, single point]",
CCOC(=O)c1c(N)n(Cc2ccc(OC)cc2)c2nc3ccccc3nc12,"inconclusive [inhibitor, single point]",
COc1ccc(OC(=O)N(C)C)c(CN(C)C)c1,,inactive: 7.11% [at 46.1 µM]
COc1ccccc1OCCCn1cc(C(=O)C2CC2)c2ccccc21,"inconclusive [activator, single point]",
CCN(CC)CCCOC(=O)C(OC(C)C)(c1ccccc1)c1ccccc1,"inconclusive [activator, full curve, poor fit]",
